About 110 (5.5%) of roughly 2,000 compounds showed an effect of 50% or more. The list shows a part of the results.
Biological target: Genome polyprotein (dengue virus type 2) (UniProt P29990)
[1] = Thailand/16681/1984, Concentration 25.0 uM, Number of replicates 1.0

Structure (SMILES): O=Cc1ccc(N2CCC(C(=O)N3CCN(Cc4ccc(C(F)(F)F)cc4)CC3)CC2)cc1
- inhibition [1]: 12.4%

Structure (SMILES): CCCCCC(=O)N[C@H](C(=O)N1CCC[C@@H](CN)C1)c1ccc(OCc2ccccc2)cc1
- inhibition (Thailand/16681/1984, Concentration 49.5 uM, Number of replicates 2.0, Standard deviation 0.4718692881385108 %): -0.055%
- inhibition (Thailand/16681/1984, Concentration 99.01 uM, Number of replicates 2.0, Standard deviation 0.7762171287158467 %): 0.491%
- inhibition (Thailand/16681/1984, Concentration 198.0 uM, Number of replicates 2.0, Standard deviation 0.05826818665370504 %): 2.27%

Structure (SMILES): Cc1cc(CO)c2cccc(Cc3ccccc3C(=O)N[C@H](Cc3c[nH]cn3)C(=O)O)c2n1
- inhibition (Thailand/16681/1984, Concentration 49.95 uM, Number of replicates 2.0, Standard deviation 1.149843071816267 %): 2.76%
- inhibition (Thailand/16681/1984, Concentration 99.9 uM, Number of replicates 2.0, Standard deviation 1.185775620395321 %): 11.7%

Structure (SMILES): CN(C)c1ccc(CNC(=O)C2CCN(c3ccc(C=O)cc3)CC2)cc1
- inhibition [1]: 10.9%

Structure (SMILES): CC(=O)Nc1ccc(C(=O)Nc2cccc3c(CO)cc(C)nc23)cn1
- inhibition (Thailand/16681/1984, Concentration 49.95 uM, Number of replicates 2.0, Standard deviation 2.6037756556386347 %): 8.34%
- inhibition (Thailand/16681/1984, Concentration 99.9 uM, Number of replicates 2.0, Standard deviation 1.476868730194602 %): 14.3%

Structure (SMILES): O=Cc1ccc(N2CCC(C(=O)NCc3cccc(Br)c3)CC2)cc1
- inhibition [1]: 9.39%

Structure (SMILES): Oc1ccc(CN2CC[C@H](c3c[nH]c4ccccc34)C2)cn1
- inhibition (Thailand/16681/1984, Concentration 49.5 uM, Number of replicates 2.0, Standard deviation 2.2203318043751317 %): -1.96%
- inhibition (Thailand/16681/1984, Concentration 99.01 uM, Number of replicates 2.0, Standard deviation 2.4081803687742815 %): -1.66%
- inhibition (Thailand/16681/1984, Concentration 198.0 uM, Number of replicates 2.0, Standard deviation 2.584109641095512 %): -0.954%

Structure (SMILES): C[C@H]1CN(C(=O)OC(C)(C)C)CCN1C(=O)C1CCN(c2ccc(C=O)cc2)CC1
- inhibition [1]: 12.4%

Structure (SMILES): CCCCCC(=O)N[C@H](C(=O)Nc1ccc(C(N)=O)cc1)c1ccc(OCc2ccccc2)cc1
- inhibition (Thailand/16681/1984, Concentration 49.5 uM, Number of replicates 2.0, Standard deviation 0.6010644427830669 %): 0.424%
- inhibition (Thailand/16681/1984, Concentration 99.01 uM, Number of replicates 2.0, Standard deviation 0.8411278167455505 %): 0.131%
- inhibition (Thailand/16681/1984, Concentration 198.0 uM, Number of replicates 2.0, Standard deviation 0.2400633914962311 %): -0.732%

Structure (SMILES): CCCN(C(=O)C1CCN(c2ccc(C=O)cc2)CC1)[C@@H](C)C(=O)Nc1ccccc1C
- inhibition [1]: 4.38%

Structure (SMILES): CCN(CC)S(=O)(=O)c1ccc(NC(=O)C2CCN(c3ccc(C=O)cc3)CC2)cc1
- inhibition [1]: 12.2%

Structure (SMILES): CN(C(=O)C1CCN(c2ccc(C=O)cc2)CC1)C(c1ccccc1)c1ccccc1
- inhibition [1]: 12.6%

Structure (SMILES): C[C@@H](NC(=O)C1CCN(c2ccc(C=O)cc2)CC1)c1cccc(Br)c1
- inhibition [1]: 11.8%

Structure (SMILES): CNC(=O)c1cc(Cl)ccc1NC(=O)c1ccc(Oc2ccccc2)cc1
- inhibition (Thailand/16681/1984, Concentration 49.5 uM, Number of replicates 2.0, Standard deviation 2.8470532500960037 %): 3.11%
- inhibition (Thailand/16681/1984, Concentration 99.01 uM, Number of replicates 2.0, Standard deviation 1.2685656864496342 %): 3.72%
- inhibition (Thailand/16681/1984, Concentration 198.0 uM, Number of replicates 2.0, Standard deviation 8.269913675746206 %): 3.31%

Structure (SMILES): CC(=O)N[C@@H](CCCCN)C(=O)N[C@@H](Cc1cccc2c(CO)cc(C)nc12)C(=O)O
- inhibition (Thailand/16681/1984, Concentration 49.95 uM, Number of replicates 2.0, Standard deviation 0.8674748022006504 %): -0.687%
- inhibition (Thailand/16681/1984, Concentration 99.9 uM, Number of replicates 2.0, Standard deviation 0.2317319710699916 %): 3.21%

Structure (SMILES): O=Cc1ccc(N2CCC(C(=O)Nc3ccc([N+](=O)[O-])cc3C(F)(F)F)CC2)cc1
- inhibition [1]: 11.1%

Structure (SMILES): O=Cc1ccc(N2CCC(C(=O)N3CCS[C@H]3c3ccc([N+](=O)[O-])cc3)CC2)cc1
- inhibition [1]: 10.8%

Structure (SMILES): O=Cc1ccc(N2CCC(C(=O)Nc3ccc(OC(F)(F)F)cc3Cl)CC2)cc1
- inhibition [1]: 13.6%

Structure (SMILES): CCCCCC(=O)N[C@H](C(=O)N1CCC[C@@H](N)C1)c1ccc(OCc2ccccc2)cc1
- inhibition (Thailand/16681/1984, Concentration 49.5 uM, Number of replicates 2.0, Standard deviation 1.275572557867722 %): -0.123%
- inhibition (Thailand/16681/1984, Concentration 99.01 uM, Number of replicates 2.0, Standard deviation 1.3300520589416613 %): 0.674%
- inhibition (Thailand/16681/1984, Concentration 198.0 uM, Number of replicates 2.0, Standard deviation 1.6287502093065211 %): 2.04%

Structure (SMILES): Cc1cc(CO)c2cccc(Cc3cccc(C(=O)Nc4nonc4C(N)=O)c3)c2n1
- inhibition (Thailand/16681/1984, Concentration 49.95 uM, Number of replicates 2.0, Standard deviation 1.9942580477177279 %): 23.4%
- inhibition (Thailand/16681/1984, Concentration 99.9 uM, Number of replicates 2.0, Standard deviation 1.5142007227316114 %): 73%

Structure (SMILES): C[C@@H](C(=O)Nc1cccc(CN)c1)c1ccc(OCc2ccccc2)cc1
- inhibition (Thailand/16681/1984, Concentration 49.5 uM, Number of replicates 2.0, Standard deviation 0.3044314072412208 %): -4.36%
- inhibition (Thailand/16681/1984, Concentration 99.01 uM, Number of replicates 2.0, Standard deviation 0.7321447066003233 %): -2.65%
- inhibition (Thailand/16681/1984, Concentration 198.0 uM, Number of replicates 2.0, Standard deviation 1.545638942119706 %): 1.83%

Structure (SMILES): NCCC(=O)Nc1cccc2cccnc12
- inhibition (Thailand/16681/1984, Concentration 49.95 uM, Number of replicates 2.0, Standard deviation 1.674842930068702 %): -9.45%
- inhibition (Thailand/16681/1984, Concentration 99.9 uM, Number of replicates 2.0, Standard deviation 2.956474982493684 %): -7.49%

Structure (SMILES): Cn1c(CO)nnc1[C@H]1CCCN(C(=O)C2CCN(c3ccc(C=O)cc3)CC2)C1
- inhibition [1]: 15.9%

Structure (SMILES): Cc1cccc(CN2CCN(C(=O)C3CCN(c4ccc(C=O)cc4)CC3)CC2)c1
- inhibition [1]: 12.7%

Structure (SMILES): Cc1cc(CO)c2cccc(CC(=O)N3CC[C@@H](CO)C3)c2n1
- inhibition (Thailand/16681/1984, Concentration 49.95 uM, Number of replicates 2.0, Standard deviation 0.5137309710723801 %): -5.22%
- inhibition (Thailand/16681/1984, Concentration 99.9 uM, Number of replicates 2.0, Standard deviation 2.131775122213861 %): 2.82%

Structure (SMILES): NC1(c2cccc(NC(=O)[C@@H](NC(=O)OCc3ccccc3)c3ccc(OCc4ccccc4)cc3)c2)CCC1
- inhibition (Thailand/16681/1984, Concentration 49.5 uM, Number of replicates 2.0, Standard deviation 1.548341364789727 %): -1.1%
- inhibition (Thailand/16681/1984, Concentration 99.01 uM, Number of replicates 2.0, Standard deviation 2.5737499035846856 %): -0.156%
- inhibition (Thailand/16681/1984, Concentration 198.0 uM, Number of replicates 2.0, Standard deviation 1.3706209083708834 %): 5.8%

Structure (SMILES): CCCC[C@H](N)C(=O)N[C@@H](C(=O)NCc1ccc(C(N)=O)cc1)c1ccc(OCc2ccccc2)cc1
- inhibition (Thailand/16681/1984, Concentration 49.5 uM, Number of replicates 2.0, Standard deviation 0.45534308736890416 %): -4.77%
- inhibition (Thailand/16681/1984, Concentration 99.01 uM, Number of replicates 2.0, Standard deviation 0.9591594337975816 %): 6.09%
- inhibition (Thailand/16681/1984, Concentration 198.0 uM, Number of replicates 2.0, Standard deviation 4.328590586700157 %): 82.3%

Structure (SMILES): CS(=O)(=O)N1CCC(NC(=O)C2CCN(c3ccc(C=O)cc3)CC2)CC1
- inhibition [1]: 12%

Structure (SMILES): Cc1cnccc1NC(=O)c1cc(C2CCC2)n(C)c1C
- inhibition (Thailand/16681/1984, Concentration 49.5 uM, Number of replicates 2.0, Standard deviation 0.7067686370209446 %): 0.618%
- inhibition (Thailand/16681/1984, Concentration 99.01 uM, Number of replicates 2.0, Standard deviation 0.7459418989288495 %): 1.95%
- inhibition (Thailand/16681/1984, Concentration 198.0 uM, Number of replicates 2.0, Standard deviation 0.11875700646175207 %): 4.33%
